Experimental data published in PubChem BioAssay AID504466 (National Center for Advancing Translational Sciences (NCATS), 2011).
Out of some 330,000 compounds screened, about 4,200 (1.3%) were called active. This list was built around the results that the source calls inconclusive (neither active nor inactive); the mix of calls is not that of the screen. Calls come from the whole dose curve; as a rule, active = well fitted activation curve with a large enough effect; inconclusive = small, poorly fitted or top-dose-only effect; inactive = no such curve, though single readings can be large or run the other way. Potencies beside an inconclusive call are fits to weak or partial responses and may not hold up.

Experiment: qHTS screen for small molecules that induce genotoxicity in human embryonic kidney (HEK293T) cells expressing luciferase-tagged ELG1; note: nearly all actives have a fitted effect of over 60% in size; for activity change, positive = activation: % of control where 0% means no effect
Settings: HEK293T ELG1-luciferase reporter, luminescence, 16 h; series mostly up to 46 µM; activity change, positive = activation: at the top concentration
How it was run: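 Genotoxicity was scored as increased ELG1-luciferase reporter signal, measured by ONE-Glo luminescence (30 min, room temperature). Compound or vehicle exposure of the HEK293T reporter cells lasted 16 hr at 37°C.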
Potency is the fitted concentration of half-maximal effect; tags give direction and shape of the fitted curve.

| Structure (SMILES) | Potency | activity change, positive = activation |
| --- | --- | --- |
| COc1cc(/C=C(\C#N)C(=O)Nc2ccccn2)ccc1O | inconclusive: 7.3 µM [activator, partial curve] |  |
| COc1ccc(C(=O)NCCOc2ccccc2Cl)c(OC)c1OC | active: 14.6 µM |  |
| COc1ccc(-n2c(O)c(/C=N/n3cnnc3)c3ccccc3c2=O)cc1 |  | inactive: 2.32% |
| c1ccc(-c2csc(-c3ccc(-c4csnn4)cc3)n2)cc1 | inconclusive: 16.4 µM [activator, partial curve, poor fit] |  |
| c1ccc(-c2ncc(-c3ccn[nH]3)s2)cc1 | inconclusive: 1.83 µM [activator, full curve] |  |
| O=C(/C=C/c1ccc(F)cc1)NC(=S)N1CCN(Cc2ccccc2)CC1 |  | inactive: -2.43% |
| O=C1c2ccccc2-c2nc3ccccc3nc21 | active: 4.47 µM |  |
| Nc1cc(C(=O)OCC(=O)N2CCCC2)ccc1Cl | inconclusive: 25.9 µM [activator, single point] |  |
| COc1ccc(Nc2oc(-c3cccs3)nc2C#N)cc1 | inconclusive: 18.4 µM [activator, partial curve, poor fit] |  |
| COC(=O)c1cc(-c2ccc(Br)cc2)n[nH]1 | inconclusive: 23.1 µM [activator, single point] |  |
| Cc1ccc(C)c(C(=O)CN2C(=O)c3ccccc3S2(=O)=O)c1 | inconclusive: 5.8 µM [activator, full curve, poor fit] |  |
| CN(C)c1cccc(C(=O)NNC(=O)CN2C(=O)C3CC=CCC3C2=O)c1 (centres undefined) | active: 10.3 µM |  |
| COC(=O)c1c(NC(=O)Cc2cccs2)sc(C(=O)N2CCCCC2)c1C |  | inactive: -1% |
| CCCn1c(SCc2nc3ccccc3s2)n[nH]c1=O | active: 18.3 µM |  |
| O=C(COC(=O)c1cccc(-n2cnnn2)c1)c1ccc(F)cc1 | inconclusive: 10.3 µM [activator, partial curve] |  |
| COc1ccc(N2CC(C(=O)NCc3n[nH]c(=O)c4ccccc34)CC2=O)cc1 (centres undefined) | inconclusive: 18.3 µM [activator, partial curve, poor fit] |  |
| CN1CCC(Oc2ccc(Sc3ccccc3)cc2)CC1 | inconclusive: 29.1 µM [activator, single point] |  |
| O=C(NC1CCCCC1)C(=S)NC1CCCCC1 | inconclusive: 2.59 µM [activator, full curve] |  |
| Cc1ccc(NC(=O)c2sc(N)nc2C)cc1 | active: 20.6 µM |  |
| CCOC(=O)c1cnc2c(-c3ccccc3)cnn2c1C | active: 8.2 µM |  |
| O=C(COc1ncnc2cc(Cl)ccc12)c1ccc2c(c1)OCCO2 | inconclusive: 14.6 µM [activator, partial curve] |  |
| Cc1nn(-c2ccc(Cl)cc2)c(=O)c2ccccc12 | inconclusive: 13 µM [activator, partial curve] |  |
| O=C(CN1CCCCC1)Nc1nc(-c2ccccc2)cs1 | inconclusive: 23.1 µM [activator, partial curve, poor fit] |  |
| COC(=O)c1ccc(C(=O)OC)c(NC(=O)Nc2ccc3c(c2)OCO3)c1 | active: 14.6 µM |  |
| Cc1nn2c(N)c(-c3ccccc3)cnc2c1-c1ccc(Cl)cc1 | inconclusive: 10.3 µM [activator, partial curve] |  |

| Structure (SMILES) | Potency | activity change, positive = activation |
| --- | --- | --- |
| CCOC(=O)Cc1csc(NC(=O)c2cc3c(s2)CCCC3)n1 | inconclusive: 10.3 µM [activator, partial curve] |  |
| CC(=O)c1cccc(CN2CCCC(N3CCN(c4ccccc4F)CC3)C2)c1 (centres undefined) |  | inactive: -6.9% |
| CN1CCc2c(sc3nc(SCC(=O)N4CCOCC4)n(-c4ccc(Cl)cc4)c(=O)c23)C1 |  | inactive: -0.265% |
| O=C(Nc1ccc2c(c1)oc1ccccc12)N1CCOCC1 | inconclusive: 10.3 µM [activator, partial curve, poor fit] |  |
| O=C1C(c2cc(=O)c3ccccc3[nH]2)=C(O)c2ccccc21 | active: 8.2 µM |  |
| CC(CN(C)C)CN1c2ccccc2Sc2ccccc21 (centres undefined) | inconclusive: 18.3 µM [activator, partial curve, poor fit] |  |
| N/C(=N\OC(=O)COc1ccccc1)c1ccc(Cl)cc1 | inconclusive: 18.4 µM [activator, partial curve, poor fit] |  |
| CN(C)c1ccc(/C=C/C(=O)c2ccc3c(c2)OCO3)cc1 | inconclusive: 20.6 µM [activator, partial curve, poor fit] |  |
| O=C(Nc1nnc(-c2ccco2)o1)c1ccc2ccccc2c1 | inconclusive: 29.1 µM [activator, single point] |  |
| CC(NC(=O)C1CCC(CNS(=O)(=O)c2ccccc2)CC1)c1ccc2c(c1)OCCO2 (centres undefined) |  | inactive: -6.93% |
| Cc1sc2nc(SCC(=O)Nc3ccccc3F)[nH]c(=O)c2c1C |  | inactive: 16% |
| O=C1ON=C(c2ccccc2)/C1=C/c1ccc(O)cc1 | inconclusive: 20.6 µM [activator, single point] |  |
| NC(=O)c1oc2ccccc2c1NC(=O)C1COc2ccccc2O1 (centres undefined) |  | inactive: 8.78% |
| O=C(COc1ccccc1)n1nc(-c2ccc(Cl)cc2)nc1NCc1ccco1 | active: 20.6 µM |  |
| FC(F)(F)c1ccc(N/N=C/c2cccnc2)nc1 | inconclusive: 6.51 µM [activator, single point] |  |
| CCOC(=O)c1ccc(NC(=O)CSc2nc(N3CCOCC3)nc(N3CCOCC3)n2)cc1 | inconclusive: 18.3 µM [activator, single point] |  |
| C/C(=C\C(=O)c1cccnc1)Nc1ccc(O)cc1 | active: 16.4 µM |  |
| O=c1[nH]c(Cc2ccccc2)nc2c1oc1ccccc12 |  | inactive: 2.41% |
| COc1ccc2oc(C(=O)NCCc3ccccc3)c(C)c2c1 | inconclusive: 0.326 µM [activator, partial curve, poor fit] |  |
| Cc1ccccc1OCC(=O)N/N=C/c1c(C)nn(-c2ccccc2)c1Cl |  | inactive: -0.397% |
| C#C[C@]1(O)CC[C@H]2[C@@H]3CCC4=CC(=O)CC[C@@H]4[C@H]3CC[C@@]21CC | inconclusive: 5.8 µM [activator, full curve] |  |
| CC(C(=O)O)N1C(=O)/C(=C/C=C/c2ccco2)SC1=S (centres undefined) |  | inactive: 0.409% |
| COc1ccc2[nH]c3c(=O)n(Cc4ccc(C(=O)N5CCCC5)cc4)c(=S)[nH]c3c2c1 | inconclusive: 6.51 µM [activator, single point] |  |
| CCOC(=O)CC(=O)CSc1nc2sc(C)cc2c(=O)n1Cc1ccco1 |  | inactive: -15.3% |
| Cc1cccc(C(=O)O/N=C/c2ccc(Br)cc2)c1 | inconclusive: 4.61 µM [activator, partial curve, poor fit] |  |

| Structure (SMILES) | Potency | activity change, positive = activation |
| --- | --- | --- |
| Cc1ccccc1Nc1nn2c(=O)c3ccccc3nc2s1 | inconclusive: 9.2 µM [activator, partial curve, poor fit] |  |
| NS(=O)(=O)c1ccc(NC(=O)/C=C/c2cccs2)cc1 |  | inactive: 10.2% |
| O=C(/C=C/c1ccccc1Cl)Nc1ccc(Cl)cn1 | inconclusive: 20.6 µM [activator, partial curve, poor fit] |  |
| COc1cccc(CN2CCNC(=O)C2CC(=O)N(C)C2CCCCC2)c1 (centres undefined) |  | inactive: 1.9% |
| Cn1nnc2cc(C(=O)Nc3ccc(Cl)cc3)ccc21 | inconclusive: 18.3 µM [activator, partial curve, poor fit] |  |
| CC1CCN(S(=O)(=O)N2CCCC(C(=O)NCc3ccccc3Cl)C2)CC1 (centres undefined) |  | inactive: -0.888% |
| Cc1ccc(-c2cnn(-c3ccccc3)c2N)cc1 | inconclusive: 2.59 µM [activator, full curve] |  |
| CCN(C(=O)COC(=O)Cn1c(C)csc1=O)c1c(N)n(Cc2ccccc2)c(=O)[nH]c1=O |  | inactive: 4.78% |
| CCOC(=O)C(C)n1cnc2c(cnn2-c2ccc(Cl)cc2)c1=O (centres undefined) | inconclusive: 10.3 µM [activator, partial curve] |  |
| Cn1ccnc1SCC(=O)c1cccc(C(F)(F)F)c1 | inconclusive: 16.4 µM [activator, partial curve] |  |
| Cc1cc(=O)[nH]c(N/N=C/c2ccccn2)n1 | inconclusive: 6.51 µM [activator, partial curve, poor fit] |  |
| O=C(NCC1CCCO1)Nc1cccc(Cl)c1 (centres undefined) | inconclusive: 14.6 µM [activator, partial curve, poor fit] |  |
| COc1ccc(NC(=O)Nc2cccc(NC(C)=O)c2)c(OC)c1 |  | inactive: 7.82% |
| CCN(CC)C(=O)[C@H]1C[C@H](CC(=O)NCCN2CCOCC2)C(=O)N2CCc3c([nH]c4cc(-c5ccco5)ccc34)[C@]12C |  | inactive: 6.34% |
| COc1ccc(C(=O)NC(=S)NNC(=O)[C@H]2C[C@@H]2c2ccccc2)cc1OC | inconclusive: 29.1 µM [activator, single point] |  |
| O=C(NCCc1ccccc1)c1cnc2n(c1=O)CCS2 | inconclusive: 13 µM [activator, partial curve] |  |
| O=C(OCc1nnc(-c2ccccc2)o1)c1cc(S(=O)(=O)N2CCOCC2)c(Cl)cc1Cl | active: 18.4 µM |  |
| CN(C)S(=O)(=O)c1cccc(NC(=O)Cn2cc(C(F)(F)F)cc(Cl)c2=O)c1 | inconclusive: 2.59 µM [activator, partial curve, poor fit] |  |
| O=C(NCCN1CCOCC1)c1noc2c1CCc1ccccc1-2 | active: 16.4 µM |  |
| COc1ccccc1Oc1ccc(-c2cnc3ccccc3n2)cc1[N+](=O)[O-] | inconclusive: 18.3 µM [activator, partial curve, poor fit] |  |
| Cc1ccc(C(=O)Nc2cc(C(C)C)c(O)c(C(C)C)c2)cc1 |  | inactive: -6.85% |
| O=C(N/N=C/c1cc(Cl)ccc1O)c1cccnc1 | inconclusive: 7.3 µM [activator, partial curve, poor fit] |  |
| Cc1cc2oc(C(=O)Nc3nonc3C)c(C)c2cc1C | active: 10.3 µM |  |
| O=C(N/N=C/c1ccccn1)c1c[nH]c2ccccc12 | inconclusive: 14.6 µM [activator, partial curve] |  |
